Reference: PubChem BioAssay AID1508624 (National Center for Advancing Translational Sciences (NCATS), 2021)
Screen size: about 48,000 compounds; about 120 (0.25%) were called active. Roughly 4% stayed inconclusive and do not appear here. The call rests on the fitted dose curve; in most records, active means well fitted activation curve with a large enough effect; inconclusive means small, poorly fitted or top-dose-only effect, or another doubt; inactive means no such curve, though single readings can be large or run the other way. Some of the results follow.

Assay: Primary qHTS for Identification of Small Molecule Activators of Huntingtin-Antisense Promoter Activity; further: nearly all actives have a fitted effect of over 55% in size
Settings: HEK293 HTT-AS promoter firefly luciferase reporter, 24 h; series mostly up to 57.5 µM; activity change, positive = activation: at the top concentration
Outline: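 HEK293 cells carrying firefly luciferase reporters were seeded at 2,500 per well in Opti-MEM and cultured for 24 h. They were then treated with compounds at up to 57.5 uM final for 24 h at 37 degrees C before Dual-Glo luminescence readout.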

Structure (SMILES) | activity change, positive = activation
CCc1cccc(CC)c1NC(=O)c1cc(S(=O)(=O)N2CCc3ccccc32)cn1C | inactive: -25%
Cc1ccc(CN2CCCn3nc(C(=O)NCCN(C)C)cc3C2=O)cc1 | inactive: 20.3%
CCOC(=O)c1c(C)[nH]c(C)c1S(=O)(=O)N1CCC(C(=O)NCc2ccccc2)CC1 | inactive: -5.98%
Cc1ccc(C)c(OCCSc2nc3ccccc3n2CC(=O)N2CCOCC2)c1 | inactive: -21.1%
COc1ccc(NC(=O)Cc2coc3cc(C)cc(C)c23)c(OC)c1 | inactive: -5.54%
COc1ccc2c(c1)c1c(c(=O)n(Cc3ccccc3)c(=O)n1Cc1cc(C)ccc1C)n2C | inactive: -5.76%
COc1cccc(OCc2nc3ccccc3n2CCOc2ccccc2)c1 | inactive: -26.7%
Cc1ccc(S(=O)(=O)N2CCCC(c3nc4c(nnn4Cc4ccc(OC(F)(F)F)cc4)c(=O)[nH]3)C2)cc1 (stereo not drawn) | inactive: 10.6%
CC(C)C[C@H](NC(=O)[C@H](CCc1ccccc1)NC(=O)CN1CCOCC1)C(=O)N[C@@H](Cc1ccccc1)C(=O)N[C@@H](CC(C)C)C(=O)[C@@]1(C)CO1 | inactive
CCOC(=O)c1ccc2c(c1)N(Cc1cccc([N+](=O)[O-])c1)C(=O)c1ccccc1S2 | inactive: 0.46%
Cn1nc(-c2ccc(OCC(=O)Nc3ccccc3)cc2)c2ccccc2c1=O | inactive: -25%
O=C(Cn1c(=O)nc(-c2ccccc2)c2cc(Cl)ccc21)NCc1ccccc1 | inactive: -39.7%
CCn1cc(S(=O)(=O)c2ccccc2)c(=O)c2cc(C)ccc21 | inactive: -1.77%
CCOC(=O)c1[nH]c2ccccc2c1NC(=O)c1ccc(OC(C)C)cc1 | inactive: 3.86%
COc1cc(OC)cc(C(=O)Nc2ccc(S(=O)(=O)Nc3cc(C)nc(C)n3)cc2)c1 | inactive: -1.08%
COc1ccc(CCN2CC(C(=O)NCCc3ccc(C)cc3)CC2=O)cc1OC (stereo not drawn) | inactive: -19.6%
CCCCn1c(COc2cccc(OC)c2)nc2ccccc21 | inactive: 3.1%
NC(=O)N/N=C/c1ccc([N+](=O)[O-])o1 | inactive
COc1cc(NC(=O)c2cc3c(=O)oc4ccc(C)cc4c3s2)cc(OC)c1OC | inactive: -8.78%
CC(C)(CC(=O)OCC(=O)Nc1ccc(F)c(Cl)c1)CC1=NS(=O)(=O)c2ccccc2N1 | inactive: -38.7%
O=C(CSc1nccn1-c1ccc(Cl)cc1)Nc1nc2ccccc2s1 | inactive: -8.81%
Brc1ccc(-c2cc3c(N4CCN(c5ccccc5)CC4)nccn3n2)cc1 | inactive: -6.18%
O=C(O)c1[nH]n(-c2ccc(S(=O)(=O)O)cc2)c(=O)c1N=Nc1ccc(S(=O)(=O)O)cc1 | inactive: -2.95%
Cc1ccccc1NC(=O)c1sc2nc(-c3ccncc3)ccc2c1N | inactive: -23.5%

Structure (SMILES) | activity change, positive = activation
CCOC(=O)c1ccc(N2C(=O)c3n[nH]c(-c4cccs4)c3C2c2ccc(C)cc2)cc1 (stereo not drawn) | inactive: -4.52%
CCCN(CCC)CCCNC(=O)Cn1ncc2c3ccccc3n(Cc3ccc(F)cc3)c2c1=O | inactive: -4.42%
Cc1nc(C)c(-c2ccc(SCC(=O)Nc3ccccc3F)nn2)s1 | inactive: 3.64%
COCCCNC(=O)CCCn1c(=O)c2cccn2c2cccnc21 | inactive: -8.85%
COc1cccc(CNC(=O)CCNS(=O)(=O)c2cccc3nsnc23)c1 | inactive: -21.4%
Cc1cc2ccccc2n1-c1ccc(C(=O)N2CCCCC2)s1 | inactive: 0.65%
CCCCNC(=O)CSc1nc2cc3c(cc2c(=O)n1CCCCCC(=O)NCc1ccc2c(c1)OCO2)OCO3 | inactive: -2%
Cc1ccc(-n2c(SCC(=O)NCc3ccc(F)cc3)nc3c([nH]c4ccccc43)c2=O)cc1 | inactive: -38%
COc1ccc(N(CC(=O)NCCc2ccccc2)S(=O)(=O)c2ccccc2)c(OC)c1 | inactive: 0.9%
COc1cc2c(cc1OC)C(COc1ccc(F)cc1)N(C(=O)Cc1ccc(F)cc1)CC2 (stereo not drawn) | inactive: -23.2%
Cc1ccc(Nc2c(-c3ccncc3)nc3ccc(C)cn23)cc1 | inactive: 1.18%
CCOc1ccc(OCC)c(S(=O)(=O)N2CCN(c3cccc(C)c3C)CC2)c1 | inactive: 0.333%
CCOC(=O)C1CCN(c2ncnc3c2nnn3C)CC1 | inactive: 5.27%
Cc1ccc(CN(C(=O)COc2cccc([N+](=O)[O-])c2)c2ccccn2)cc1 | inactive: -20.6%
CC(C)NC(=O)c1ccc(-n2c(-c3ccccc3)cc3c2CCCCC3)cc1 | inactive: 10.6%
COc1ccc(Cl)cc1NC(=O)Cn1cc(C(=O)c2ccncc2)c(=O)c2cc(C)ccc21 | inactive: -2.07%
Nc1ncc(S(=O)(=O)NCc2ccc(Cl)cc2)cn1 | inactive: -5.01%
CCC(Sc1nc2cc(OC)c(OC)cc2c(=O)n1CCc1ccc(Cl)cc1)C(=O)NCCOC (stereo not drawn) | inactive: -1.56%
COc1cc2nc(SCc3cccc(Cl)c3)n3nc(CCn4nc(C)cc4C)nc3c2cc1OC | inactive: 21.8%
CCOc1ccc(-c2cc(OC(=O)c3ccccc3)c3c(C)oc(C)c3c(=O)c2)cc1 | inactive: -20.9%
Cn1nnc2c(N3CCN(c4ccccc4F)CC3)ncnc21 | inactive: 37.3%
O=C(CSc1nc2ccccc2n1Cc1ccccc1F)NCc1ccccc1 | inactive: -17.7%
Cc1ccccc1C(=O)Nc1cccc(C(=O)OCc2cc(=O)n3c4c(sc3n2)CCCC4)c1 | inactive: -2.02%
COc1cccc(-c2cc(C(=O)Nc3cc(OC)c(OC)c(OC)c3)on2)c1 | inactive: -25.8%

Structure (SMILES) | activity change, positive = activation
COc1cccc2c1cc1c(=O)n(CC(=O)N3CCN(c4cc(Cl)ccc4C)CC3)nc(C)n12 | inactive: -1.99%
COc1ccc(-c2nc(Cn3c(SCc4ccc(C)cc4)nc4cccnc43)c(C)o2)cc1OC | inactive: -14.1%
O=C(CCCn1c(=O)c2cccn2c2cccnc21)NCc1ccc(F)cc1 | inactive: -0.358%
CCC1CCCCN1CC(=O)N1CCCc2c1c(=O)oc1ccc(OCc3ccccc3)cc21 (stereo not drawn) | inactive: -49.5%
CCN1CCN(c2ccc(NS(=O)(=O)c3c(C)nc4sccn4c3=O)cc2Cl)CC1 | inactive: -45.4%
COc1ccc(CNC(=O)CCC(=O)N2CCSc3ccccc32)cc1 | inactive: -2.24%
CCOc1ccc(-n2c(C)nc3cc(C(=O)NCCC4=CCCCC4)ccc32)cc1 | inactive: -4.13%
CCCC1OC2C[C@@H]3[C@H]4CCC5=CC(=O)C=C[C@]5(C)[C@H]4C(O)C[C@]3(C)[C@]2(C(=O)CO)O1 (stereo partly drawn) | inactive: -13.8%
CCOC(=O)c1ccc(NC(=O)C2=C(C)Nc3nc(SCc4ccc(Cl)cc4)nn3C2c2ccc(OC)cc2)cc1 (stereo not drawn) | inactive: -10%
COc1ccc(-c2nnc(SCC(=O)Nc3ccc(Cl)cc3)s2)cc1 | inactive: -69.9%
Cc1cc(C)cc(N2CCn3c2nc2c3c(=O)n(Cc3ccc(Cl)cc3)c(=O)n2C)c1 | inactive: -17.1%
CCCS(=O)(=O)c1ncc(Cl)c(C(=O)Nc2scc(-c3ccccc3)c2C(=O)OCC)n1 | inactive: -93.9%
CC(=O)N[C@@H](CCC(=O)O)C(=O)O | inactive: -1.57%
O=S(=O)(c1ccccc1)c1nc(-c2ccc(Cl)cc2Cl)oc1N1CCCCCC1 | inactive: 8.62%
CN(C)CCC[C@@]1(c2ccc(F)cc2)OCc2cc(C#N)ccc21 | inactive: -8.43%
COc1ccc(CNC(=O)Cn2nnc(-c3ccc(S(C)(=O)=O)cc3)n2)cc1 | inactive: -10.6%
CCOC(=O)c1cccc(NC(=O)C2CCN(S(=O)(=O)c3ccc4c(c3)oc(=O)n4C)CC2)c1 | inactive: -33.3%
COc1ccc(S(=O)(=O)N(CCc2ccccc2)CC(=O)Nc2cccc(OC)c2)cc1 | inactive: -21.3%
COc1ccccc1N1CCN(c2ncnc3c2cnn3C)CC1 | inactive: 8.87%
CCc1ccc(C(=O)COC(=O)C(Cc2c[nH]c3ccccc23)NC(=O)c2ccc(Br)cc2)cc1 (stereo not drawn) | inactive: 7.71%
CCOc1ccc(C2c3cc(OCC)c(OCC)cc3CC(=O)N2c2ccc(C(=O)O)cc2)cc1OCC (stereo not drawn) | inactive: -1.21% [at 11.5 µM, percent change from vehicle, -100% = no light]
CCc1cccc(C)c1NC(=O)Cn1ccn(-c2ccc(F)cc2)c(=O)c1=O | inactive: -4.23%
Cc1nc2ccc(S(=O)(=O)N(C)CC(=O)Nc3ccc(Br)c(C)c3)cc2s1 | inactive: -38%
CCOc1ccc(C2CC(=O)c3c([nH]c(C(=O)OCc4ccccc4)c3C)C2)cc1 (stereo not drawn) | inactive: -16.5%

Structure (SMILES) | activity change, positive = activation
COc1ccc(CCN2C(=O)c3oc4ccc(F)cc4c(=O)c3C2c2ccc(C(C)(C)C)cc2)cc1 (stereo not drawn) | inactive: -12.2%
Cc1ccccc1NS(=O)(=O)c1ccc(Br)s1 | inactive: -24.4%
CN(Cc1ccccc1)S(=O)(=O)c1ccc(F)c(C(=O)Nc2cccc(Cl)c2Cl)c1 | inactive: -4.92%
CCN(CC)c1cc2c(cc1F)c(=O)c(S(=O)(=O)c1cc(C)ccc1C)cn2Cc1ccccc1 | inactive: -8.81%
Cc1cccc(CC2C(=O)Nc3ccccc32)c1 (stereo not drawn) | inactive: -28.8%
Cc1c(/C=C(\C#N)C(=O)Nc2cccc(Cl)c2)c2ccccc2n1Cc1ccccc1Cl | inactive: -11.4%
CCOC(=O)c1c(NC(=O)c2ccc(S(=O)(=O)N(CCOC)CCOC)cc2)sc2c1CC(C)(C)NC2(C)C | inactive: -10%
CN1CCCC(n2nc(Cc3ccc(Cl)cc3)c3ccccc3c2=O)CC1 (stereo not drawn) | inactive: -4.98%
Cc1c(Cl)cccc1NC(=O)CN1C(=O)COc2ccc(S(=O)(=O)Nc3ccccc3)cc21 | inactive: -29.4%
CCCOC(=O)CSc1nnc2ccc3ccccc3n12 | inactive: 4.71%
O=C(CSc1nc2ccccc2nc1Cc1ccccc1)Nc1ccc2c(c1)OCO2 | inactive: -3.29%
COc1ccc(NC(=O)c2ccc3c(c2)CCN3S(=O)(=O)c2ccc(C)cc2)cc1Cl | inactive: -4.09%
CCOC(=O)c1cccc(NC(=O)C(C)n2c(C)c3cnn(-c4ccccc4)c(=O)c3c2C)c1 (stereo not drawn) | inactive: -28.8%
Cc1ccc(NC(=O)CN(C)S(=O)(=O)c2ccc3nc(C)sc3c2)c(C)c1 | inactive: -12.4%
CC(C)NS(=O)(=O)c1ccc2nc(NC(=O)c3cncc(Br)c3)sc2c1 | inactive: -16.7%
COc1ccc(Cl)cc1NC(=O)CCc1c(C)nc2c(c1C)c(=O)n(C)c(=O)n2C | inactive: -12.7%
FC(F)(F)C(F)(F)C(F)(F)C(F)(F)C(F)(F)C(F)(F)C(F)(F)C(F)(F)Br | inactive: -0.918%
COc1cc(NC(=O)CSc2nc3nc(C)c(Cc4ccc(C)cc4)c(C)n3n2)cc(OC)c1 | inactive: -14.9%
CCCSCCCNC(=O)c1ccc(Cn2c(=O)c3cccn3c3cccnc32)cc1 | inactive: -5.46%
COc1ccc(C(=O)CN2C(=O)N(c3ccc(C(C)=O)cc3)S(=O)(=O)c3ccccc32)cc1 | inactive: -28.4%
CCOC(=O)N1CCc2c(sc3c2c(=O)n(CCc2ccccc2)c(=O)n3Cc2ccc(F)cc2)C1 | inactive: -37.2%
